Results published in paper PMC6029619.
Results are given in words; binding and its absence hold for the method and conditions named. Binding seen in cells or lysates may run through a third protein. Some results given as binding are weak or reduced against the parent protein; the word gives no strength. Sequences can lack the tags named with a protein.

Protein sequences, listed by entry. Tags and fused reporters are not part of them. Residues count along the entry.
UniProt P46109, residues 14-102: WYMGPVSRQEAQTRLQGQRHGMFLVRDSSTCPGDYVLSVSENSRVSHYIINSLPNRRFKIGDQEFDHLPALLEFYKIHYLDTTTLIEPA

B1: human DCBLD1 WT, C-terminal Myc and Flag tags (receptor, UniProt Q8N8Z6 35-715)
chain: EELGDGCGHLVTYQDSGTMTSKNYPGTYPNHTVCEKTITVPKGKRLILRLGDLDIESQTCASDYLLFTSSSDQYGPYCGSMTVPKELLLNTSEVTVRFESGSHISGRGFLLTYASSDHPDLITCLERASHYLKTEYSKFCPAGCRDVAGDISGNMVDGYRDTSLLCKAAIHAGIIADELGGQISVLQRKGISRYEGILANGVLSRDGSLSDKRFLFTSNGCSRSLSFEPDGQIRASSSWQSVNESGDQVHWSPGQARLQDQGPSWASGDSSNNHKPREWLEIDLGEKKKITGIRTTGSTQSNFNFYVKSFVMNFKNNNSKWKTYKGIVNNEEKVFQGNSNFRDPVQNNFIPPIVARYVRVVPQTWHQRIALKVELIGCQITQGNDSLVWRKTSQSTSVSTKKEDETITRPIPSEETSTGINITTVAIPLVLLVVLVFAGMGIFAAFRKKKKKGSPYGSAEAQKTDCWKQIKYPFARHQSAEFTISYDNEKEMTQKLDLITSDMADYQQPLMIGTGTVTRKGSTFRPMDTDAEEAGVSTDAGGHYDCPQRAGRHEYALPLAPPEPEYATPIVERHVLRAHTFSAQSGYRVPGPQPGHKHSLSSGGFSPVAGVGAQDGDYQRPHSAQPADRGYDRPKAVSALATESGHPDSQKPPTHPGTSDSYSAPRDCLTPLNQTAMTALL
B2: DCBLD2-Y1F (Tyr750Phe) (receptor, UniProt Q96PD2 67-775)
chain: QQGDGCGHTVLGPESGTLTSINYPQTYPNSTVCEWEIRVKMGERVRIKFGDFDIEDSDSCHFNYLRIYNGIGVSRTEIGKYCGLGLQMNHSIESKGNEITLLFMSGIHVSGRGFLASYSVIDKQDLITCLDTASNFLEPEFSKYCPAGCLLPFAEISGTIPHGYRDSSPLCMAGVHAGVVSNTLGGQISVVISKGIPYYESSLANNVTSVVGHLSTSLFTFKTSGCYGTLGMESGVIADPQITASSVLEWTDHTGQENSWKPKKARLKKPGPPWAAFATDEYQWLQIDLNKEKKITGIITTGSTMVEHNYYVSAYRILYSDDGQKWTVYREPGVEQDKIFQGNKDYHQDVRNNFLPPIIARFIRVNPTQWQQKIAMKMELLGCQFIPKGRPPKLTQPPPPRNSNDLKNTTAPPKIAKGRAPKFTQPLQPRSSNEFPAQTEQTTASPDIRNTTVTPNVTKDVALAAVLVPVLVMVLTTLILILVCAWHWRNRKKKTEGTYDLPYWDRAGWWKGMKQFLPAKAVDHEETPVRYSSSEVNHLSPREVTTVLQADSAEYAQPLVGGIVGTLHQRSTFKPEEGKEAGYADLDPYNSPGQEVYHAYAEPLPITGPEYATPIIMDMSGHPTTSVGQPSTSTFKATGNQPPPLVGTYNTLLSRTDSCSSAQAQYDTPKAGKPGLPAPDELVFQVPQSTQEVSGAGRDGECDVFKEIL
B3: DCBLD2-Y3F (Tyr750Phe, Tyr732Phe, Tyr565Phe) (receptor, UniProt Q96PD2 67-775)
chain: QQGDGCGHTVLGPESGTLTSINYPQTYPNSTVCEWEIRVKMGERVRIKFGDFDIEDSDSCHFNYLRIYNGIGVSRTEIGKYCGLGLQMNHSIESKGNEITLLFMSGIHVSGRGFLASYSVIDKQDLITCLDTASNFLEPEFSKYCPAGCLLPFAEISGTIPHGYRDSSPLCMAGVHAGVVSNTLGGQISVVISKGIPYYESSLANNVTSVVGHLSTSLFTFKTSGCYGTLGMESGVIADPQITASSVLEWTDHTGQENSWKPKKARLKKPGPPWAAFATDEYQWLQIDLNKEKKITGIITTGSTMVEHNYYVSAYRILYSDDGQKWTVYREPGVEQDKIFQGNKDYHQDVRNNFLPPIIARFIRVNPTQWQQKIAMKMELLGCQFIPKGRPPKLTQPPPPRNSNDLKNTTAPPKIAKGRAPKFTQPLQPRSSNEFPAQTEQTTASPDIRNTTVTPNVTKDVALAAVLVPVLVMVLTTLILILVCAWHWRNRKKKTEGTFDLPYWDRAGWWKGMKQFLPAKAVDHEETPVRYSSSEVNHLSPREVTTVLQADSAEYAQPLVGGIVGTLHQRSTFKPEEGKEAGYADLDPYNSPGQEVYHAYAEPLPITGPEYATPIIMDMSGHPTTSVGQPSTSTFKATGNQPPPLVGTYNTLLSRTDSCSSAQAQFDTPKAGKPGLPAPDELVFQVPQSTQEVSGAGRDGECDVFKEIL
B4: DCBLD1-Y8F (human DCBLD1 with all intracellular YxxP motifs mutated to FxxP) (receptor, UniProt Q8N8Z6 35-715)
chain: EELGDGCGHLVTYQDSGTMTSKNYPGTYPNHTVCEKTITVPKGKRLILRLGDLDIESQTCASDYLLFTSSSDQYGPYCGSMTVPKELLLNTSEVTVRFESGSHISGRGFLLTYASSDHPDLITCLERASHYLKTEYSKFCPAGCRDVAGDISGNMVDGYRDTSLLCKAAIHAGIIADELGGQISVLQRKGISRYEGILANGVLSRDGSLSDKRFLFTSNGCSRSLSFEPDGQIRASSSWQSVNESGDQVHWSPGQARLQDQGPSWASGDSSNNHKPREWLEIDLGEKKKITGIRTTGSTQSNFNFYVKSFVMNFKNNNSKWKTYKGIVNNEEKVFQGNSNFRDPVQNNFIPPIVARYVRVVPQTWHQRIALKVELIGCQITQGNDSLVWRKTSQSTSVSTKKEDETITRPIPSEETSTGINITTVAIPLVLLVVLVFAGMGIFAAFRKKKKKGSPYGSAEAQKTDCWKQIKYPFARHQSAEFTISYDNEKEMTQKLDLITSDMADFQQPLMIGTGTVTRKGSTFRPMDTDAEEAGVSTDAGGHFDCPQRAGRHEFALPLAPPEPEFATPIVERHVLRAHTFSAQSGFRVPGPQPGHKHSLSSGGFSPVAGVGAQDGDFQRPHSAQPADRGFDRPKAVSALATESGHPDSQKPPTHPGTSDSFSAPRDCLTPLNQTAMTALL
B5: DCBLD2-Y7F (Tyr750Phe, Tyr732Phe, Tyr677Phe, Tyr666Phe, Tyr655Phe, Tyr621Phe, Tyr565Phe) (receptor, UniProt Q96PD2 67-775)
chain: QQGDGCGHTVLGPESGTLTSINYPQTYPNSTVCEWEIRVKMGERVRIKFGDFDIEDSDSCHFNYLRIYNGIGVSRTEIGKYCGLGLQMNHSIESKGNEITLLFMSGIHVSGRGFLASYSVIDKQDLITCLDTASNFLEPEFSKYCPAGCLLPFAEISGTIPHGYRDSSPLCMAGVHAGVVSNTLGGQISVVISKGIPYYESSLANNVTSVVGHLSTSLFTFKTSGCYGTLGMESGVIADPQITASSVLEWTDHTGQENSWKPKKARLKKPGPPWAAFATDEYQWLQIDLNKEKKITGIITTGSTMVEHNYYVSAYRILYSDDGQKWTVYREPGVEQDKIFQGNKDYHQDVRNNFLPPIIARFIRVNPTQWQQKIAMKMELLGCQFIPKGRPPKLTQPPPPRNSNDLKNTTAPPKIAKGRAPKFTQPLQPRSSNEFPAQTEQTTASPDIRNTTVTPNVTKDVALAAVLVPVLVMVLTTLILILVCAWHWRNRKKKTEGTFDLPYWDRAGWWKGMKQFLPAKAVDHEETPVRYSSSEVNHLSPREVTTVLQADSAEFAQPLVGGIVGTLHQRSTFKPEEGKEAGYADLDPFNSPGQEVYHAFAEPLPITGPEFATPIIMDMSGHPTTSVGQPSTSTFKATGNQPPPLVGTYNTLLSRTDSCSSAQAQFDTPKAGKPGLPAPDELVFQVPQSTQEVSGAGRDGECDVFKEIL

Each binder was assayed against GST-CRKL-SH2 (fusion of glutathione S-transferase with the CRKL-SH2 domain) (UniProt P46109) (assay: pull-down; GST-CRKL-SH2 on glutathione beads rocked with HEK 293 cell lysates (BCLB) at 4 °C, washed three times with BCLB, blot with anti-Flag or anti-Myc; cells untreated, stimulated with 8.8 mM H2O2, co-expressing Fyn and/or c-Abl, or treated with Src-1 or STI571 alone before H2O2; only the target purified).
With B1 the binding was “binds”. With B2 the binding was “binds”. With B3 the binding was “binds”. With B4 the binding was “no binding”. With B5 the binding was “no binding”.
